The text below walks through data of the supplement of paper PMC11417369.

The list shows a part of the results.

This experiment has as its system PfSIP2 AP2 domain 1 (GST-tagged). Kind of experiment: gcPBM binding intensity (ln(normalized median fluorescence intensity)); higher = stronger DNA binding. The method in brief:
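An Agilent 4 × 180k array of primer-extended double-stranded 36-bp intergenic genomic probes, with negative controls, was incubated for 1 h with GST-tagged P. falciparum DNA-binding domains expressed in E. coli. Alexa488 anti-GST antibody detected bound protein, scanned at 488 nm. Binding intensity is the highest Masliner-normalised natural-log median intensity across replicate spots of either probe orientation.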
As to “TATACACATATATAAAGTACATATATGTGTAAAAAA [XGTACX_site8582]”, the “gcPBM binding intensity (ln)” value worked out at 6.87.

Turning to TCATATATAAAAAGGGTGCTTTTAAAAGAATGGATT, the “gcPBM binding intensity (ln)” value is 8.45. The same measure for “CAAAAAATGAAACACACACACACACCCATAAATAAA [CACACA_site1231]”: 7.13; for “AATATTTTTTGTTTTACACACATATATAGATATATA [CACACA_site7662]”: 6.93; for “CAGATATTTGTTCATATACACACTTTTGATAAAATA [CACACA_site1219]”: 6.9.

As for “TTTTTTGGGTAAAATTATAAAATATGTATATATAAA [CACACA_negctrl_site27]”, the “gcPBM binding intensity (ln)” value worked out at 7.

Take “TTTTTTTTTGTATTTTCACACATTTTTTTTTTTTTT [CACACA_site5407]”: the “gcPBM binding intensity (ln)” value is 7.38. The value for “TTATTTAAACAAATCACACACAAATATATATACATA [CACACA_site2019]” was 6.92. The value for “CATATTTTCAAAATTAGTACATAAAAAAAAAAATAT [XGTACX_site3101]” was 7.14; that for “TATAATCATATATACACACACATATATATATATATA [CACACA_site2168]” was 9.08; that for “TCTTCCGCTTTATGGAGTACTATGGTAGCCTTTCCT [XGTACX_site2958]” was 6.7.

Turning to “GACCTACAAAAAGGCACACATATACGCATACATACA [CACACA_site2179]”, the “gcPBM binding intensity (ln)” value is 7.39.

“AATTTTAATTATATCACACATAATATATACCAAAAA [CACACA_site6011]”: the “gcPBM binding intensity (ln)” value was 6.88. As for “TTTAATACTTTTTTCTGTACACACTTGATTTACTAT [XGTACX_site5925]”, the “gcPBM binding intensity (ln)” value is 7.3. Take “AAAAAAAAAAGACACACACACACACGGAGATATATA [CACACA_site6216]”: the “gcPBM binding intensity (ln)” value was 6.94.

As to “TACATATTTTTATATACACACAATAATTACTATAAA [CACACA_site6879]”, the “gcPBM binding intensity (ln)” value turned out to be 7.23.

Consider TAGGTACATAAATTGGTGCAAAGTGTACATATATAT, for which the “gcPBM binding intensity (ln)” value is 9.97. For “AAAATACATAAACGTTCACACATTGAAGATCACAAG [CACACA_site5347]”, the “gcPBM binding intensity (ln)” value is 6.91.

As to “AACATATACACGAACACACACACATATAAATAAATA [CACACA_site6380]”, the “gcPBM binding intensity (ln)” value turned out to be 7.25. AAAAATACAATTTTCTTGCACTTTGTTGCATTGTAA: the “gcPBM binding intensity (ln)” value was determined as 7.75.

Take “CAAAATATAAAAACATGTACATAAATATTAACGAAT [XGTACX_site2380]”: the “gcPBM binding intensity (ln)” value is 7.17. The value for “TCATCCACATATTGTAGTACAAGATAATTGTTTATT [XGTACX_site1634]” was 7.37; that for “ATATGTTTATTAAATGCATGTCAAGACTTAAGATAT [TGCATGCA_site329]” was 7.32. The same measure for “TTTATTATTTTAACGTGTACAAGGTATATAATATTC [XGTACX_site5241]”: 7.08. The same measure for “TAGGTAAATGCAAATTGGTTTAAATCAAAATATAAA [XGTACX_negctrl_site250]”: 6.75.
